# Laboratory results published in PubChem BioAssay (Tox21).
# Records with an inconclusive call do not appear. The call rests on the fitted dose curve; in most records, active means well fitted inhibition curve with a large enough effect in the repeat runs; inconclusive means weak or mixed curves; inactive means no such curve, though single readings can be large or run the other way. Some structures have more than one record in an assay (separate samples or runs), and their calls can disagree. A number of entries come with more than one value. Only these are listed. The source may hold further records. Results that share an entry repeat one measurement (runs, samples, wells, individuals or studies). A tag in brackets gives the origin of a value. The letters are not those of the source and start again with each entry.
# Experiment: qHTS assay to identify small molecule antagonists of the thyroid receptor (TR) signaling pathway (AID 743065); further: nearly all actives have a fitted effect of over 55% in size
# Conditions: GH3.TRE-Luc, T3-stimulated luciferase inhibition, 23.5 h; series mostly up to 32.5 µM
# In short: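 GH3.TRE-Luc rat pituitary cells (two TREs driving luciferase) were dosed with compound, then stimulated with 1 nM T3 (final) for 23.5 h at 37 C. ONE-Glo luminescence was the read-out, with CellTiter-Fluor fluorescence as the cytotoxicity counter-screen.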
# Potency means the concentration at half of the fitted maximal effect.
compound,measurement,value
NC[C@H]1O[C@H](O[C@H]2[C@H](O)[C@@H](O[C@H]3O[C@H](CO)[C@@H](O)[C@H](N)[C@H]3O)[C@H](N)C[C@@H]2N)[C@H](O)[C@@H](O)[C@@H]1O,Potency,inactive [sample A] and active: 2.38 µM [sample B]
